Source: the supplement of paper PMC6206098
± gives the uncertainty stated by the source. Shown are siRNA guide strands that differ only in the seed, positions 2 to 7.

Assays:
3LL = assay: cell viability relative to siNT1 control; higher = less toxic; conditions: concentration: 10 nM; 96 h; Mus musculus;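 note: Luminescence-based viability of cells reverse transfected in 384-well plates with lipid-complexed siRNAs built on a non-toxic 19mer backbone whose passenger strand carries 2′-O-methyl groups at positions 1 and 2, triplicates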
Procedure: (§1)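 Arrayed screen of 4096 siRNA duplexes, each carrying one of all possible 6mer seeds at guide-strand positions 2-7 in a fixed neutral 19mer scaffold (constant flanks: U at position 1, then ACAUGUAAACCA, plus a 3' AA overhang). The passenger strand is 2'-O-methylated at positions 1-2 so only the guide strand loads into RISC. Duplexes were reverse-transfected at 10 nM with RNAiMAX in triplicate in 384-well plates; viability was read by CellTiter-Glo ATP content 96 h after transfection. Values are % viability normalised to lipid-only wells (HeyA8, H460, M565) or to siNT1 (3LL).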

H460 = assay: cell viability relative to lipid-only control; HeyA8 human ovarian and H460 human lung cancer; M565 mouse liver and 3LL mouse lung cancer; siNT1 is a non-toxic control siRNA; higher = less toxic; conditions: concentration: 10 nM; 96 h; Homo sapiens
Procedure: as §1

HeyA8 = assay: as above; conditions: concentration: 10 nM; 96 h; Homo sapiens
Procedure: as §1

M565 = assay: as above; conditions: concentration: 10 nM; 96 h; Mus musculus
Procedure: as §1
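Throughout, for cell viability relative to lipid-only control: reverse lipid transfection in 384-well plates, in triplicate, of duplexes on a non-toxic 19mer backbone with passenger strand 2′-O-methylated at positions 1 and 2, luminescence viability read-out.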

Row | Sequence | cell viability (3LL) | cell viability (H460) | cell viability (HeyA8) | cell viability (M565)
1 | UACAAUCACAUGUAAACCAAA | 88.6 ± 6.7% | 74.7 ± 4.9% | 12.3 ± 1.5% | 83.2 ± 4.3%
2 | UACAAUGACAUGUAAACCAAA | 92.2 ± 11% | 83.2 ± 2.3% | 69.7 ± 1.5% | 49.6 ± 13%
3 | UACAAUUACAUGUAAACCAAA | 86.6 ± 11% | 83.7 ± 6.7% | 68.7 ± 1.4% | 57.1 ± 7.9%
4 | UACACAAACAUGUAAACCAAA | 84.7 ± 7% | 77.2 ± 2% | 85 ± 4.8% | 49.3 ± 2.1%
5 | UACACACACAUGUAAACCAAA | 53.6 ± 8.3% | 61.9 ± 3.6% | 45.4 ± 6.1% | 19.6 ± 7.8%
6 | UACACAGACAUGUAAACCAAA | 89 ± 15% | 55.9 ± 6.7% | 62 ± 6.5% | 35.1 ± 4.3%
7 | UACACAUACAUGUAAACCAAA | 92 ± 13% | 82.4 ± 5.7% | 61.7 ± 10% | 28.4 ± 6.9%
8 | UACACCAACAUGUAAACCAAA | 71.4 ± 13% | 63.6 ± 4.9% | 67.5 ± 1.1% | 39.2 ± 4.3%
9 | UACACCCACAUGUAAACCAAA | 40.7 ± 9.5% | 41 ± 6.6% | 24.2 ± 1.7% | 21.2 ± 1.9%
10 | UACACCGACAUGUAAACCAAA | 78.2 ± 17% | 76.2 ± 9.9% | 72.2 ± 7.4% | 39.2 ± 10%
11 | UACACCUACAUGUAAACCAAA | 63.4 ± 5% | 26 ± 1.8% | 6.22 ± 0.49% | 27.9 ± 6.1%
12 | UACACGAACAUGUAAACCAAA | 85.7 ± 10% | 81.7 ± 18% | 79.2 ± 5% | 59.1 ± 13%
13 | UACACGCACAUGUAAACCAAA | 21.6 ± 4.1% | 41.3 ± 4.7% | 40.4 ± 6.8% | 5.21 ± 1.1%
14 | UACACGGACAUGUAAACCAAA | 73 ± 3.5% | 63.8 ± 5.1% | 75.5 ± 1.2% | 53.5 ± 7.3%
15 | UACACGUACAUGUAAACCAAA | 70.8 ± 12% | 81.1 ± 12% | 64.3 ± 4.8% | 34.6 ± 8.4%
16 | UACACUAACAUGUAAACCAAA | 82.7 ± 11% | 98.5 ± 3% | 84.5 ± 6.9% | 70 ± 9.2%
17 | UACACUCACAUGUAAACCAAA | 40.2 ± 5.2% | 66.3 ± 4.4% | 64.1 ± 5.6% | 37.2 ± 0.73%
18 | UACACUGACAUGUAAACCAAA | 89.2 ± 14% | 82.2 ± 20% | 77.8 ± 2.2% | 67.5 ± 14%
19 | UACACUUACAUGUAAACCAAA | 71.4 ± 11% | 84 ± 14% | 63.9 ± 6.9% | 39.9 ± 6.2%
20 | UACAGAAACAUGUAAACCAAA | 85.4 ± 11% | 85.7 ± 6.3% | 88.2 ± 8% | 46 ± 8.8%
21 | UACAGACACAUGUAAACCAAA | 14.8 ± 2.5% | 37.4 ± 6.6% | 8.9 ± 1.7% | 10.7 ± 3.4%
22 | UACAGAGACAUGUAAACCAAA | 82.1 ± 15% | 64.8 ± 4.4% | 78.1 ± 14% | 59.1 ± 12%

Row | Sequence | cell viability (3LL) | cell viability (H460) | cell viability (HeyA8) | cell viability (M565)
23 | UACAGAUACAUGUAAACCAAA | 36.2 ± 5% | 39.1 ± 1.8% | 4.95 ± 0.68% | 10.9 ± 0.87%
24 | UACAGCAACAUGUAAACCAAA | 87.2 ± 7.5% | 67.5 ± 6.7% | 93.1 ± 4.9% | 80 ± 5.2%
25 | UACAGCCACAUGUAAACCAAA | 3 ± 1.2% | 37.6 ± 3% | 37.3 ± 3.8% | 3.79 ± 1.2%
26 | UACAGCGACAUGUAAACCAAA | 90.6 ± 6.7% | 82.7 ± 18% | 92.7 ± 6.5% | 70.4 ± 16%
27 | UACAGCUACAUGUAAACCAAA | 14.5 ± 7.6% | 59 ± 6.7% | 52.5 ± 2.3% | 14.6 ± 1.6%
28 | UACAGGAACAUGUAAACCAAA | 81 ± 9.8% | 74.7 ± 20% | 96.3 ± 6.7% | 64.3 ± 2.6%
29 | UACAGGCACAUGUAAACCAAA | 23.1 ± 5.7% | 14.8 ± 0.78% | 8.28 ± 0.66% | 15.2 ± 5.2%
30 | UACAGGGACAUGUAAACCAAA | 10.8 ± 5.7% | 58 ± 11% | 49.1 ± 2.1% | 14 ± 5.3%
31 | UACAGGUACAUGUAAACCAAA | 66.6 ± 10% | 46.5 ± 2.2% | 12.4 ± 2.7% | 38 ± 2.1%
32 | UACAGUAACAUGUAAACCAAA | 95.7 ± 18% | 114 ± 12% | 99.9 ± 11% | 69.4 ± 6.3%
33 | UACAGUCACAUGUAAACCAAA | 29.8 ± 5.8% | 74.6 ± 7.6% | 35.1 ± 3.2% | 12.5 ± 3.3%
34 | UACAGUGACAUGUAAACCAAA | 88.5 ± 12% | 89.8 ± 19% | 94.9 ± 4.6% | 48.3 ± 7.3%
35 | UACAGUUACAUGUAAACCAAA | 74.6 ± 5.7% | 87.5 ± 7.7% | 69.8 ± 5.9% | 49.1 ± 2.9%
36 | UACAUAAACAUGUAAACCAAA | 97.5 ± 11% | 99.1 ± 14% | 94.4 ± 7.7% | 79.2 ± 8.8%
37 | UACAUACACAUGUAAACCAAA | 64.3 ± 13% | 55.9 ± 3.3% | 43.7 ± 3.7% | 70.9 ± 7.2%
38 | UACAUAGACAUGUAAACCAAA | 88.9 ± 13% | 76.3 ± 21% | 82.1 ± 7.4% | 66.1 ± 10%
39 | UACAUAUACAUGUAAACCAAA | 93.6 ± 12% | 76.8 ± 4.3% | 52.8 ± 4.3% | 73.6 ± 13%
40 | UACAUCAACAUGUAAACCAAA | 90 ± 7.8% | 74.9 ± 4.7% | 75.5 ± 10% | 59.3 ± 6.1%
41 | UACAUCCACAUGUAAACCAAA | 7.76 ± 1.3% | 39.8 ± 0.79% | 38.4 ± 1.1% | 19.4 ± 8%
42 | UACAUCGACAUGUAAACCAAA | 91.1 ± 10% | 73.3 ± 15% | 75.1 ± 1.1% | 65.7 ± 11%
43 | UACAUCUACAUGUAAACCAAA | 31.6 ± 3.3% | 72.4 ± 4.7% | 7.45 ± 1.9% | 31.8 ± 9.5%
44 | UACAUGAACAUGUAAACCAAA | 94.2 ± 8.3% | 60 ± 3.8% | 71.1 ± 12% | 81.9 ± 13%
